# Data reported in PubChem BioAssay AID602310 (National Center for Advancing Translational Sciences (NCATS), 2012).
# Hit rate of the full screen: of about 410,000 compounds, about 310 (0.076%) were called active. This list was built around the results that the source calls inconclusive (neither active nor inactive); the mix of calls is not that of the screen. Calls follow the shape of the dose curve; as a rule, active = well fitted curve in the direction sought with a large enough effect; inconclusive = small, poorly fitted or top-dose-only effect; inactive = flat fitted curve, though single readings scatter. Where the call is inconclusive, the potency comes from a doubtful curve fit.
# Target: DNA dC->dU-editing enzyme APOBEC-3G (Homo sapiens) (UniProt Q9HC16)
# Assay: qHTS for Inhibitors of Vif-A3G Interactions: qHTS; also: nearly all actives have a fitted effect of over 60% in size
# Settings: HeLa A3G-eYFP + Vif (tagged APOBEC3G with the HIV-1 protein that degrades it), YFP fluorescence, overnight; series mostly up to 46.1 µM
# Summary of the method: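 Read-out is eYFP fluorescence (Ex 488/Em 500-530) from Vif-expressing HeLa A3G-eYFP cells; more signal means A3G escaped Vif-mediated degradation. Cells plated overnight, compound pinned in, incubated overnight at 37 deg C.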
# Potency is read from the fitted curve at half-maximal effect; tags tell the direction and shape of the fitted curve.
# UniProt Q9HC16, sequence (Q9HC16 whole entry, looked up): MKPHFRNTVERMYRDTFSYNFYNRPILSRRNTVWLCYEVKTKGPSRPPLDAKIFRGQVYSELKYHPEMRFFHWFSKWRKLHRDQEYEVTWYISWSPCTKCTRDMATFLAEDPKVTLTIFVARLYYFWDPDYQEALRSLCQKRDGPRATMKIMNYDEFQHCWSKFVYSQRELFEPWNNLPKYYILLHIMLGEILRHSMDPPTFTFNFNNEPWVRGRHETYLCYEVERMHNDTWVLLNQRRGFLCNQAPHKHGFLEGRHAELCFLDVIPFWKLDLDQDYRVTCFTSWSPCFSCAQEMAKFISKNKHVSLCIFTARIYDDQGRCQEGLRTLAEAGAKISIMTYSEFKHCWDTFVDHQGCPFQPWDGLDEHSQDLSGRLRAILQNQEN
row,Compound,Potency
1,O=Cc1s/c(=N\S(=O)(=O)c2ccccc2)n(CCCCl)c1Cl,"inconclusive: 35.5 µM [inhibitor, single point]"
2,Oc1ccc(Cc2ccccc2)c2cccnc12,"inconclusive: 35.5 µM [inhibitor, partial curve, poor fit]"
3,COc1ccc(Br)cc1/C=N/NC(=O)c1cc(OC)c(OC)c(OC)c1,"inconclusive: 17.8 µM [inhibitor, single point]"
4,Cn1cc(CN2CCCC(C(=O)Nc3cccc(-c4cc5ccccc5[nH]4)c3)C2)cn1 (stereo unspecified),"inconclusive: 35.5 µM [inhibitor, single point]"
5,CCOCCOC(=O)c1[nH]c2c(c1C)C(=O)CC(c1ccccc1)C2 (stereo unspecified),"inconclusive: 0.562 µM [inhibitor, full curve, poor fit]"
6,COc1ccc(NC(=O)c2cc(-c3cc(F)ccc3OCC3CCCO3)n[nH]2)cc1OC (stereo unspecified),inactive
7,CCOC(=O)c1ccc2c(c1)N(CC(=O)Nc1ccc(C)cc1C)C(=O)c1ccccc1S2,inactive
8,CN(C)C(=O)COC(=O)c1ccccc1OCC(=O)Nc1ccc(Br)cc1,inactive
9,COC(=O)C1=C(Nc2ccc(C)cc2)C=C(C)C(C(=O)OC)C1c1ccc(F)cc1 (stereo unspecified),"inconclusive: 7.08 µM [inhibitor, partial curve, poor fit]"
10,O=C(NCCSCc1c(F)cccc1Cl)C1CCN(S(=O)(=O)Cc2ccccc2)CC1,inactive
11,Cc1cc2oc(=O)cc(CN3CCCCC3C)c2cc1C (stereo unspecified),inactive
12,O=C(Cn1cnc2sc(-c3ccccc3)cc2c1=O)NCc1ccccc1,"inconclusive: 11.2 µM [inhibitor, partial curve]"
13,CCN(CC)CCCNc1ccc2ncn3c4ccc(O)cc4c(=O)c1c23,"inconclusive: 3.16 µM [inhibitor, full curve, poor fit]"
14,COc1cccc(/C=C/c2nc(C#N)c(N3CCCCC3)o2)c1,inactive
15,CC(=O)c1ccc(NS(=O)(=O)c2cc3[nH]c(=O)c(=O)[nH]c3cc2C)cc1,inactive
16,CCOc1cc(C(=O)Nc2cnccn2)cc(OCC)c1OCC,"inconclusive: 6.31 µM [inhibitor, full curve]"
17,COc1cc(/C=N/Nc2nc3c(c(=O)n(C)c(=O)n3C)n2Cc2ccccc2)ccc1OC(=O)c1ccco1,"inconclusive: 35.5 µM [inhibitor, single point]"
18,O=C(NC1CC1)C1CCCN1S(=O)(=O)c1ccc2ccccc2c1 (stereo unspecified),"inconclusive: 11.2 µM [inhibitor, single point]"
19,CC1Nc2ncnc(N3CCN(c4ccccc4)CC3)c2N(Cc2ccc(Cl)cc2)C1=O (stereo unspecified),inactive
20,CC(=O)C1=C(C)NC(SCC(=O)c2ccc(Cl)c(Cl)c2)=C(C#N)C1c1ccco1 (stereo unspecified),"inconclusive: 22.4 µM [inhibitor, single point]"
21,CC(C)Nc1nc(N)c(C(=O)C23CC4CC(CC(C4)C2)C3)s1,inactive
22,O=C1CC(c2ccccc2)CC(O)=C1C=NCc1ccccc1Cl (stereo unspecified),"inconclusive: 1.26 µM [inhibitor, full curve, poor fit]"
23,COc1cc(/C=C/C(=O)N2CCC=CC2=O)cc(OC)c1OC,"inconclusive: 5.01 µM [inhibitor, full curve]"

row,Compound,Potency
1,CC(=O)Nc1ccc(Cc2nc3ccccc3[nH]2)cc1,inactive
2,COc1ccc(-c2cnnc(N/N=C/c3ccc(-c4ccc([N+](=O)[O-])cc4)o3)n2)cc1,"inconclusive: 0.794 µM [inhibitor, full curve, poor fit]"
3,CN(C)/C=N/C(=S)Nc1ccc(Cl)cc1Cl,inactive
4,O=S(=O)(Nc1ccccc1)c1ccc(-c2cnc(C3CC3)o2)cc1,"inconclusive: 1.58 µM [inhibitor, full curve, poor fit]"
5,CCCCCCSc1nc(O)c(C2OC(=O)c3c2ccc(OC)c3OC)c(=O)n1-c1ccccc1 (stereo unspecified),"inconclusive: 25.1 µM [inhibitor, single point]"
6,Cc1nnc(N/N=C\c2ccc(-c3ccccc3[N+](=O)[O-])o2)n1N,"inconclusive: 22.4 µM [inhibitor, single point]"
7,COc1ccc(NC(=O)N(C)C[C@H]2Oc3c(NC(=O)Nc4ccc(C(F)(F)F)cc4)cccc3C(=O)N([C@H](C)CO)C[C@@H]2C)cc1,"inconclusive: 15.8 µM [inhibitor, single point]"
8,CC(=O)c1sc2nsc(SCCN3CCCCC3)c2c1N,inactive
9,CN(C(=O)CC1C(=O)NCCN1Cc1ccoc1)C1CCOCC1 (stereo unspecified),inactive
10,Cc1ccc2oc(=O)c3cnn(CC(=O)N4CCN(c5cc(Cl)ccc5C)CC4)c3c2c1,inactive
11,COc1cc(/C=C2\CCC/C(=C\c3ccc(O)c(OC)c3)C2=O)ccc1O,"inconclusive: 5.62 µM [inhibitor, single point]"
12,COc1ccc2cc(-c3ccccc3)ncc2c1,inactive
13,COc1cccc(OC)c1C(=O)N1CCN(Cc2ccncc2)CC1,inactive
14,Cn1cc([N+](=O)[O-])c(C(=O)Nc2ccn(C34CC5CC(CC(C5)C3)C4)n2)n1,"inconclusive: 35.5 µM [inhibitor, single point]"
15,CCOC(=O)CSC1=C(C#N)C(c2sccc2C)CC(=O)N1 (stereo unspecified),"inconclusive: 1.78 µM [inhibitor, full curve, poor fit]"
16,CCN(c1ccccc1)S(=O)(=O)c1cccc(C(=O)NCC(c2ccco2)N2CCCC2)c1 (stereo unspecified),inactive
17,N#Cc1ccc(N=c2ssnc2Cl)cc1,inactive
18,N#CC1=C2SCC(O)(c3ccccc3)N2C(=O)CC1c1ccccc1 (stereo unspecified),"inconclusive: 0.891 µM [inhibitor, full curve, poor fit]"
19,CCOC(=O)C1=C(C)NC(C)=C(C(=O)OCC)C1C(=O)OCC(=O)N1CC(C)OC(C)C1 (stereo unspecified),inactive
20,Cc1cccc2cc3c(NC(=O)c4ccccn4)nn(C)c3nc12,inactive
21,CN(CC(=O)Nc1ccc(OC(F)(F)F)cc1)C(=O)/C=C/c1ccco1,"inconclusive: 22.4 µM [inhibitor, single point]"
22,CN(C)c1nc(C=C(C#N)C#N)c(Cl)n1-c1ccc(F)cc1,"inconclusive: 35.5 µM [inhibitor, single point]"
23,Oc1cc(Nc2cccnc2)cc2cccnc12,"inconclusive: 25.1 µM [inhibitor, single point]"
